{"source": "the supplement of paper PMC8728848", "experiment_in_all_cases": "glycan array binding signal (z-score within array); higher = stronger binding", "conditions_in_all_cases": "glycan notation: IUPAC condensed, linker removed", "key": {"[1]": {"biological_target": "Fuc(a1-2)Gal(b1-4)[Fuc(a1-3)]GlcNAc", "summary_of_the_method": "(§1)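 Arrays were curated from the Consortium for Functional Glycomics database, 3228 in total, and kept only where the protein sequence was available. Binding is expressed as a within-array Z-score. This score was averaged across arrays of the same protein sequence at different concentrations or buffers and across linkers, and negative values can be read as non-binding.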"}, "[2]": {"biological_target": "Fuc(a1-2)Gal(b1-4)[Fuc(a1-3)]GlcNAc(b1-2)Man(a1-3)[Fuc(a1-2)Gal(b1-4)[Fuc(a1-3)]GlcNAc(b1-2)Man(a1-6)]Man(b1-4)GlcNAc(b1-4)[Fuc(a1-6)]GlcNAc", "summary_of_the_method": "as §1"}, "[3]": {"biological_target": "Fuc(a1-2)Gal(b1-4)[Fuc(a1-3)]GlcNAc(b1-2)[Fuc(a1-2)Gal(b1-4)[Fuc(a1-3)]GlcNAc(b1-4)]Man(a1-3)[Fuc(a1-2)Gal(b1-4)[Fuc(a1-3)]GlcNAc(b1-2)Man(a1-6)]Man(b1-4)GlcNAc(b1-4)GlcNAc", "summary_of_the_method": "as §1"}, "[4]": {"biological_target": "Fuc(a1-2)Gal(b1-4)[Fuc(a1-3)]GlcNAc(b1-3)Gal(b1-4)[Fuc(a1-3)]GlcNAc", "summary_of_the_method": "as §1"}, "[5]": {"biological_target": "Fuc(a1-2)Gal(b1-4)[Fuc(a1-3)]GlcNAc(b1-3)Gal(b1-4)[Fuc(a1-3)]GlcNAc(b1-3)Gal(b1-4)[Fuc(a1-3)]GlcNAc", "summary_of_the_method": "as §1"}, "[6]": {"biological_target": "Fuc(a1-2)Gal(b1-4)[Fuc(a1-3)]GlcNAc(b1-3)GalNAc", "summary_of_the_method": "as §1"}, "[7]": {"biological_target": "Fuc(a1-2)Gal(b1-4)[Fuc(a1-3)]GlcNAc(b1-3)[Neu5Ac(a2-6)Gal(b1-4)GlcNAc(b1-6)]Gal(b1-4)Glc", "summary_of_the_method": "as §1"}, "[8]": {"biological_target": "Fuc(a1-2)Gal3S(b1-4)GlcNAc", "summary_of_the_method": "as §1"}, "[9]": {"biological_target": "Fuc(a1-2)Gal6S(b1-3)GlcNAc", "summary_of_the_method": "as §1"}, "[10]": {"biological_target": "Fuc(a1-2)Gal6S(b1-3)GlcNAc6S", "summary_of_the_method": "as §1"}, "Fuc(a1-2)Gal6S(b1-4)Glc": {"biological_target": "Fuc(a1-2)Gal6S(b1-4)Glc", "summary_of_the_method": "as §1"}, "[11]": {"biological_target": "Fuc(a1-2)Gal6S(b1-4)Glc6S", "summary_of_the_method": "as §1"}, "Fuc(a1-2)[Gal(a1-3)]Gal": {"biological_target": "Fuc(a1-2)[Gal(a1-3)]Gal", "summary_of_the_method": "as §1"}, "[12]": {"biological_target": "Fuc(a1-2)[Gal(a1-3)]Gal(b1-3)GalNAc", "summary_of_the_method": "as §1"}, "[13]": {"biological_target": "Fuc(a1-2)[Gal(a1-3)]Gal(b1-3)GalNAc(b1-3)Gal(a1-4)Gal(b1-4)Glc", "summary_of_the_method": "as §1"}, "[14]": {"biological_target": "Fuc(a1-2)[Gal(a1-3)]Gal(b1-3)GlcNAc", "summary_of_the_method": "as §1"}, "[15]": {"biological_target": "Fuc(a1-2)[Gal(a1-3)]Gal(b1-3)GlcNAc(b1-2)Man(a1-3)[Fuc(a1-2)[Gal(a1-3)]Gal(b1-3)GlcNAc(b1-2)Man(a1-6)]Man(b1-4)GlcNAc(b1-4)GlcNAc", "summary_of_the_method": "as §1"}, "[16]": {"biological_target": "Fuc(a1-2)[Gal(a1-3)]Gal(b1-3)GlcNAc(b1-2)Man(a1-3)[Fuc(a1-2)[Gal(a1-3)]Gal(b1-3)GlcNAc(b1-2)Man(a1-6)]Man(b1-4)GlcNAc(b1-4)[Fuc(a1-6)]GlcNAc", "summary_of_the_method": "as §1"}, "[17]": {"biological_target": "Fuc(a1-2)[Gal(a1-3)]Gal(b1-3)GlcNAc(b1-3)GalNAc", "summary_of_the_method": "as §1"}, "[18]": {"biological_target": "Fuc(a1-2)[Gal(a1-3)]Gal(b1-3)GlcNAc(b1-6)GalNAc", "summary_of_the_method": "as §1"}, "[19]": {"biological_target": "Fuc(a1-2)[Gal(a1-3)]Gal(b1-4)Glc", "summary_of_the_method": "as §1"}, "[20]": {"biological_target": "Fuc(a1-2)[Gal(a1-3)]Gal(b1-4)GlcNAc", "summary_of_the_method": "as §1"}, "[21]": {"biological_target": "Fuc(a1-2)[Gal(a1-3)]Gal(b1-4)GlcNAc(b1-2)Man", "summary_of_the_method": "as §1"}, "[22]": {"biological_target": "Fuc(a1-2)[Gal(a1-3)]Gal(b1-4)GlcNAc(b1-2)Man(a1-3)[Fuc(a1-2)[Gal(a1-3)]Gal(b1-4)GlcNAc(b1-2)Man(a1-6)]Man(b1-4)GlcNAc(b1-4)GlcNAc", "summary_of_the_method": "as §1"}, "[23]": {"biological_target": "Fuc(a1-2)[Gal(a1-3)]Gal(b1-4)GlcNAc(b1-2)Man(a1-3)[Fuc(a1-2)[Gal(a1-3)]Gal(b1-4)GlcNAc(b1-2)Man(a1-6)]Man(b1-4)GlcNAc(b1-4)[Fuc(a1-6)]GlcNAc", "summary_of_the_method": "as §1"}, "[24]": {"biological_target": "Fuc(a1-2)[Gal(a1-3)]Gal(b1-4)GlcNAc(b1-3)GalNAc", "summary_of_the_method": "as §1"}, "[25]": {"biological_target": "Fuc(a1-2)[Gal(a1-3)]Gal(b1-4)GlcNAc(b1-3)[Fuc(a1-2)[Gal(a1-3)]Gal(b1-4)GlcNAc(b1-6)]GalNAc", "summary_of_the_method": "as §1"}, "[26]": {"biological_target": "Fuc(a1-2)[Gal(a1-3)]Gal(b1-4)GlcNAc(b1-6)GalNAc", "summary_of_the_method": "as §1"}, "[27]": {"biological_target": "Fuc(a1-2)[Gal(a1-3)]Gal(b1-4)[Fuc(a1-3)]Glc", "summary_of_the_method": "as §1"}, "[28]": {"biological_target": "Fuc(a1-2)[Gal(a1-3)]Gal(b1-4)[Fuc(a1-3)]GlcNAc", "summary_of_the_method": "as §1"}, "[29]": {"biological_target": "Fuc(a1-2)[Gal(a1-3)]Gal(b1-4)[Fuc(a1-3)]GlcNAc(b1-3)GalNAc", "summary_of_the_method": "as §1"}, "[30]": {"biological_target": "Fuc(a1-2)[Gal(a1-4)]Gal(b1-4)GlcNAc", "summary_of_the_method": "as §1"}, "[31]": {"biological_target": "Fuc(a1-2)[GalNAc(a1-3)]Gal", "summary_of_the_method": "as §1"}, "[32]": {"biological_target": "Fuc(a1-2)[GalNAc(a1-3)]Gal(b1-3)GalNAc(a1-3)[Fuc(a1-2)]Gal(b1-4)GlcNAc", "summary_of_the_method": "as §1"}, "[33]": {"biological_target": "Fuc(a1-2)[GalNAc(a1-3)]Gal(b1-3)GalNAc(b1-3)Gal(a1-4)Gal(b1-4)Glc", "summary_of_the_method": "as §1"}, "[34]": {"biological_target": "Fuc(a1-2)[GalNAc(a1-3)]Gal(b1-3)GlcNAc", "summary_of_the_method": "as §1"}, "[35]": {"biological_target": "Fuc(a1-2)[GalNAc(a1-3)]Gal(b1-3)GlcNAc(b1-2)Man(a1-3)[Fuc(a1-2)[GalNAc(a1-3)]Gal(b1-3)GlcNAc(b1-2)Man(a1-6)]Man(b1-4)GlcNAc(b1-4)GlcNAc", "summary_of_the_method": "as §1"}, "[36]": {"biological_target": "Fuc(a1-2)[GalNAc(a1-3)]Gal(b1-3)GlcNAc(b1-2)Man(a1-3)[Fuc(a1-2)[GalNAc(a1-3)]Gal(b1-3)GlcNAc(b1-2)Man(a1-6)]Man(b1-4)GlcNAc(b1-4)[Fuc(a1-6)]GlcNAc", "summary_of_the_method": "as §1"}}, "note": "The list shows a part of the results."}
{"binder": "Dectin2 (Homo sapiens), Q6EIG7 (protein) MMQEQQPQSTEKRGWLSLRLWSVAGISIALLSACFIVSCVVTYHFTYGETGKRLSELHSYHSSLTCFSEGTKVPAWGCCPASWKSFGSSCYFISSEEKVWSKSEQNCVEMGAHLVVFNTEAEQNFIVQQLNESFSYFLGLSDPQGNNNWQWIDKTPYEKNVRFWHLGEPNHSAEQCASIVFWKPTGWGWNDVICETRRNSICEMNKIYL", "values": [{"measurement": "glycan array binding signal (z-score)", "setting": "[1]", "result": -0.151}, {"measurement": "glycan array binding signal (z-score)", "setting": "[2]", "result": -0.008}, {"measurement": "glycan array binding signal (z-score)", "setting": "[3]", "result": 0.049}, {"measurement": "glycan array binding signal (z-score)", "setting": "[4]", "result": -0.126}, {"measurement": "glycan array binding signal (z-score)", "setting": "[5]", "result": -0.114}, {"measurement": "glycan array binding signal (z-score)", "setting": "[6]", "result": -0.082}, {"measurement": "glycan array binding signal (z-score)", "setting": "[7]", "result": -0.174}, {"measurement": "glycan array binding signal (z-score)", "setting": "[8]", "result": -0.162}, {"measurement": "glycan array binding signal (z-score)", "setting": "[9]", "result": -0.162}, {"measurement": "glycan array binding signal (z-score)", "setting": "[10]", "result": -0.054}, {"measurement": "glycan array binding signal (z-score)", "setting": "Fuc(a1-2)Gal6S(b1-4)Glc", "result": -0.138}, {"measurement": "glycan array binding signal (z-score)", "setting": "[11]", "result": 0.371}, {"measurement": "glycan array binding signal (z-score)", "setting": "Fuc(a1-2)[Gal(a1-3)]Gal", "result": -0.164}, {"measurement": "glycan array binding signal (z-score)", "setting": "[12]", "result": -0.172}, {"measurement": "glycan array binding signal (z-score)", "setting": "[13]", "result": -0.16}, {"measurement": "glycan array binding signal (z-score)", "setting": "[14]", "result": -0.104}, {"measurement": "glycan array binding signal (z-score)", "setting": "[15]", "result": -0.132}, {"measurement": "glycan array binding signal (z-score)", "setting": "[16]", "result": 0.132}, {"measurement": "glycan array binding signal (z-score)", "setting": "[17]", "result": -0.171}, {"measurement": "glycan array binding signal (z-score)", "setting": "[18]", "result": -0.137}, {"measurement": "glycan array binding signal (z-score)", "setting": "[19]", "result": -0.145}, {"measurement": "glycan array binding signal (z-score)", "setting": "[20]", "result": -0.16}, {"measurement": "glycan array binding signal (z-score)", "setting": "[21]", "result": -0.149}, {"measurement": "glycan array binding signal (z-score)", "setting": "[22]", "result": -0.099}, {"measurement": "glycan array binding signal (z-score)", "setting": "[23]", "result": 0.036}, {"measurement": "glycan array binding signal (z-score)", "setting": "[24]", "result": -0.204}, {"measurement": "glycan array binding signal (z-score)", "setting": "[25]", "result": -0.136}, {"measurement": "glycan array binding signal (z-score)", "setting": "[26]", "result": -0.164}, {"measurement": "glycan array binding signal (z-score)", "setting": "[27]", "result": -0.152}, {"measurement": "glycan array binding signal (z-score)", "setting": "[28]", "result": -0.1}, {"measurement": "glycan array binding signal (z-score)", "setting": "[29]", "result": -0.151}, {"measurement": "glycan array binding signal (z-score)", "setting": "[30]", "result": -0.154}, {"measurement": "glycan array binding signal (z-score)", "setting": "[31]", "result": -0.156}, {"measurement": "glycan array binding signal (z-score)", "setting": "[32]", "result": -0.206}, {"measurement": "glycan array binding signal (z-score)", "setting": "[33]", "result": -0.173}, {"measurement": "glycan array binding signal (z-score)", "setting": "[34]", "result": -0.126}, {"measurement": "glycan array binding signal (z-score)", "setting": "[35]", "result": -0.135}, {"measurement": "glycan array binding signal (z-score)", "setting": "[36]", "result": 0.029}]}
